The list shows a part of the results.
The compounds below were run on T1, C. trachomatis L2/434/Bu expressing GFP (CTL2-GFP). Settings: total inclusion area; 28.5 h, 10 µM; inhibitor.
T1 construct: L2/434/Bu GFP intracellular growth in HeLa cells
Set-up: species or system HeLa; C. trachomatis total inclusion area by high-content imaging, normalised to DMSO
Summary of the method: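 Imaging read-out: GFP inclusions and Hoechst nuclei captured by high-content imaging after fixation. Inclusion area/number = chlamydial growth; nuclei count = host cell viability. MIC calculated per earlier method.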

First: CNC(=O)C1(Cc2ccccc2-c2cccs2)CCN(C(=O)CCc2ccccc2)CC1 [CBK285900]
Second: Cc1ccccc1-c1ccccc1CC1(C(N)=O)CCN(C(=O)CC2CCCCC2)CC1 [CBK285723]
The “% of control remaining” value of the first is lower: 94.6432 for the first, 117.483 for the second.

First: CCc1ccc2[nH]c3nc(NN)nnc3c2c1 [CBK262734]
Second: COc1ccc(C(C)C)cc1-c1cnc2[nH]c(=O)n([C@@H](CO)C(C)C)c2n1 [CBK064495]
The “% of control remaining” value of the first is lower: 59.9588 for the first, 90.6308 for the second.

Compared with `O=C1NC2(CCc3ccccc31)CCN(C(=O)c1cccnc1)C2` (stereo not shown) [CBK283335], `CC1(Cn2ccnc2-c2ccccc2C(=O)O)CCCO1` (stereo not shown) [CBK307439] is lower in “% of control remaining” value: 117.019 for the first, 83.7235 for the second.

Compared with `O=C(NCCn1c(-c2ccncc2)nc2ccccc21)c1ccc(F)c(F)c1` [CBK288577], `CC(=O)Nc1cccc(NC(=O)c2cc(-c3ccncc3)nc3ccc(Cl)cc23)c1` [CBK267773] is lower in “% of control remaining” value: 100.011 for the first, 99.3835 for the second.

Going from `CCC1CCCCN1S(=O)(=O)c1ccc(-n2ncc(Cl)c(Cl)c2=O)cc1` (stereo not shown) [CBK305038] to `CN(Cc1ccc(-c2ccc(S(C)(=O)=O)cc2)nc1)C1CCN(C(=O)CC2CCCCC2)CC1` [CBK164105T], the “% of control remaining” value rises from 0 to 92.2051.

Compared with `Cc1cc(C(=O)N2CCC(c3nc(C)n4c(C)csc34)CC2)on1` [CBK285247], `CC1CCN(C(=O)CN2C(=O)N3CCN=C3c3ccccc32)CC1` [CBK283946] is higher in “% of control remaining” value: 74.5896 for the first, 87.6299 for the second.

Compared with `O=C(CCc1ccc(F)cc1)N1CCC(c2cccc(Cc3ccccc3)n2)CC1` [CBK286511], `NC(=O)CC1C(=O)N(c2ccc(F)cc2)C(=O)N1NC(=O)CCc1ccccc1` (stereo not shown) [CBK269033] is lower in “% of control remaining” value: 101.064 for the first, 54.3742 for the second.

Compared with `CC(C)(C)OC(=O)N1CCN(S(=O)(=O)c2ccc(Cl)c([N+](=O)[O-])c2)CC1` [CBK003165], `COc1cc([N+](=O)[O-])ccc1NC(=O)CCN1C(=O)C2C3CCC(C3)C2C1=O` (stereo not shown) [CBK265141] is higher in “% of control remaining” value: 63.3322 for the first, 75.3067 for the second.

Going from `COc1cc(NC(=O)CN2CCc3c(c(CO)nn3C)C2)cc(OC)c1` [CBK306841] to `O=C(O)CCN1CCN(c2ccc(F)cc2)CC1` [CBK287262], the “% of control remaining” value rises from 47.4829 to 65.6017.

Going from `OC(CNc1cccc2ccccc12)Cn1c2ccc(Br)cc2c2cc(Br)ccc21` (stereo not shown) [CBK261420] to `O=C(CSc1nnc(-c2ccccc2)n1-c1ccc(Cl)cc1)NCc1ccco1` [CBK266637], the “% of control remaining” value rises from 70.2787 to 120.228.

Going from `CN(C)CCNC(=O)c1cc(-c2ccc(Cl)cc2)on1` [CBK116711T] to `COCCNC(=O)c1cc(-c2ccccc2)cnc1N(C)S(C)(=O)=O` [CBK076484], the “% of control remaining” value falls from 99.4481 to 81.9011.

Compared with `CCOCCCNC(=O)/C(=C/c1cccnc1)NC(=O)c1ccccc1` [CBK126866], `COC(=O)CC1C(=O)NCCN1C(=S)NC(=O)c1ccc(-c2ccccc2)cc1` (stereo not shown) [CBK268711] is higher in “% of control remaining” value: 87.4506 for the first, 125.206 for the second.

First: O=C1NCCNC(=O)C2(C/C=C/COc3ccccc31)CCN(C(=O)CCC1CCCC1)CC2 [CBK291995]
Second: CC(=O)NCC(=O)N1CCC[C@@H]2[C@H]1CCCCc1ccccc1OCC(=O)N2C [CBK292011]
The “% of control remaining” value of the first is higher: 91.1396 for the first, 85.4481 for the second.

Compared with `Nc1nnnn1/N=C/c1cc(Cl)cc(Cl)c1OCc1ccc(Cl)cc1Cl` [CBK263853], `COc1ccc2[nH]cc(CCNC(=O)c3ccc4[nH]c(=O)[nH]c4c3)c2c1` [CBK122721] is higher in “% of control remaining” value: 94.0556 for the first, 111.612 for the second.

First: O=C(CSc1nc2sc3c(c2c(=O)n1Cc1ccco1)CCC3)NCc1ccco1 [CBK268499]
Second: O=C(CCCn1ccnc1)N1CCc2[nH]c3ccccc3c2C1 [CBK281872]
The “% of control remaining” value of the first is lower: 108.016 for the first, 108.838 for the second.

Going from `CSc1cccc(NC(=O)Nc2ccc3c(c2)OCCO3)c1` [CBK300527] to `Cc1ccc(-n2c(SCC(=O)N3CCOCC3)nnc2-c2ccccc2O)c(C)c1` [CBK269112], the “% of control remaining” value falls from 108.527 to 100.554.

Going from `O=c1[nH]nc2c3c4c(sc3ncn12)CCCC4` [CBK284235] to `Cc1nc2c(c(=O)[nH]1)CN(C(=O)Cc1c(F)cccc1Cl)CC2` [CBK283589], the “% of control remaining” value rises from 48.8625 to 77.5924.

Going from `COC(=O)C1=C(C)N=c2s/c(=C/c3ccc(OC)c(OC(C)=O)c3)c(=O)n2C1c1cccs1` (stereo not shown) [CBK077753] to `COC(=O)c1cscc1NC(=O)c1cnc(-c2cccc(C)c2)c(-c2ccc(C(C)=O)s2)c1` [CBK036760], the “% of control remaining” value falls from 105.024 to 98.1747.

Compared with `Cc1ccc(CNC(=O)Cn2nnc(-c3ccc(CN4CC(C)OC(C)C4)cc3)n2)cc1` (stereo not shown) [CBK144554C], `CC(=O)Nc1ccc(-c2nnc(SCc3c(Cl)cccc3[N+](=O)[O-])n2C)cc1` [CBK265823] is higher in “% of control remaining” value: 32.0518 for the first, 95.2356 for the second.

Compared with `Cc1nc(Nc2ccc(Cl)cc2)nc(Oc2ccccc2)n1` [CBK003915], `NS(=O)(=O)c1ccc(Nc2nc(-c3cccs3)cs2)cc1` [CBK262502] is lower in “% of control remaining” value: 87.7396 for the first, 82.4114 for the second.

Going from `C[C@H](NC(=O)N1CCN(C(=O)CCCc2c[nH]c3ccccc23)CC1)C(=O)O` [CBK286749] to `CN(CC(=O)NCc1ccccc1OC1CCNC1)C(=O)c1ccccc1` (stereo not shown) [CBK028298T], the “% of control remaining” value falls from 105.954 to 104.406.

Going from `CN1CCC[C@H]1C(=O)N1CCN(c2ncccn2)CC1` [CBK144528] to `CC(=O)N1CCc2cc(C(O)CN3CCCC4CCCCC43)ccc21` (stereo not shown) [CBK282924], the “% of control remaining” value rises from 84.7497 to 114.949.

Going from `CN(CC(=O)Nc1ccccc1N1CCCC1)Cc1cnn(Cc2ccccc2)c1` [CBK295187] to `OCc1ccccc1-c1cn2ccnc2c(N[C@@H]2CCN(Cc3ccccc3)C2)n1` [CBK037969], the “% of control remaining” value rises from 101.668 to 118.383.

First: Nc1nonc1C(=O)NCCNc1ccc([N+](=O)[O-])cc1 [CBK262577]
Second: CC(NC(=O)Cc1ccccc1F)c1nc2cccnc2n1C(C)C (stereo not shown) [CBK283829]
The “% of control remaining” value of the first is lower: 72.5857 for the first, 80.6022 for the second.

With `NS(=O)(=O)c1ccc(CNC(=O)C2(c3ccccc3)CCCC2)cc1` [CBK161523] the “% of control remaining” value was 99.0726.
